# Reference: PubChem BioAssay AID1645882 (National Center for Advancing Translational Sciences (NCATS), 2021)
# Values joined by “and” are separate entries in the source; they are usually repeats but may differ in a detail not shown here. Identical values can stand only once. The campaign covered roughly 16,000 compounds. About 120 (0.75%) were called active. Roughly 4% stayed inconclusive and do not appear here. Calls follow the shape of the dose curve; as a rule, active = well fitted inhibition curve with a large enough effect; inconclusive = small, poorly fitted or top-dose-only effect; inactive = no such curve, though single readings can be large or run the other way. This is one part of the list.
# Molecular target: Rap guanine nucleotide exchange factor 3 (Homo sapiens) (UniProt O95398)
# Test: Validation qHTS for antagonist of cAMP-regulated guanine nucleotide exchange factor 3 (EPAC1); also: nearly all actives have a fitted effect of over 75% in size;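 as to activity change, negative = inhibition: plate controls were DMSO for no effect and ATA control for full effect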
# Conditions: EPAC1 Rap1B-BODIPY-GDP exchange, fluorescence; series mostly up to 150 µM; activity change, negative = inhibition: at the top concentration
# How it was run: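 Nucleotide exchange followed as fluorescence loss when BODIPY-GDP leaves Rap1B (480 nm excitation, 540 nm emission), read at 5 min intervals over 30 min. Reaction: 100 nM EPAC1, 250 nM RAP1B-BODIPY-GDP, 50 uM GDP; ATA and DMSO define normalization.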
# Potency is read from the fitted curve at half-maximal effect.
# Chain of UniProt O95398 (O95398 whole entry, looked up): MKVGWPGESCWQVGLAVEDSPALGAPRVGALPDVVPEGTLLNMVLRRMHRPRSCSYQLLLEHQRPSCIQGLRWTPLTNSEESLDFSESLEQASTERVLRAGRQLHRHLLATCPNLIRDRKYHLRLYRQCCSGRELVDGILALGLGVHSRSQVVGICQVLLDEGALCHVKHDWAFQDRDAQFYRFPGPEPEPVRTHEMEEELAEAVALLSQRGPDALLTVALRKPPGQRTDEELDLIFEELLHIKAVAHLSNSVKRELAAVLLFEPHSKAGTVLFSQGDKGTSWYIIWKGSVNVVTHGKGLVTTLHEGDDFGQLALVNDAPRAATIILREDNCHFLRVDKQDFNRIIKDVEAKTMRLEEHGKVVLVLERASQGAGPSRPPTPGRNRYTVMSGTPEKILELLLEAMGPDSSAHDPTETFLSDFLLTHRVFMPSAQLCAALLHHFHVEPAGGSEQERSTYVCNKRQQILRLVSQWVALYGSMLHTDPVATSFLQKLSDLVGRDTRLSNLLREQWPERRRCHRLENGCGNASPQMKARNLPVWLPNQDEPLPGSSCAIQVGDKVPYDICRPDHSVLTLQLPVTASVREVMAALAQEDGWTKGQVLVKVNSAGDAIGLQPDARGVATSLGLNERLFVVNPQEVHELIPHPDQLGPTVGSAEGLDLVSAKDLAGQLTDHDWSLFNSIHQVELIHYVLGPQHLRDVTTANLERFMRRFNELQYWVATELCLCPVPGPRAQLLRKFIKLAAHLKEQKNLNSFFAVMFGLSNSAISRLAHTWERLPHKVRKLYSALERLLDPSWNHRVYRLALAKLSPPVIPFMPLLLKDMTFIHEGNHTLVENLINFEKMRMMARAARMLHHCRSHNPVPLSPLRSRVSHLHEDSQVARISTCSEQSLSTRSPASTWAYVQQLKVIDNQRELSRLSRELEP
SMILES,"activity change, negative = inhibition",Potency
COc1ccc2c(c1)c(CC(=O)O)c(C)n2C(=O)c1ccccc1,inactive: 8.86% [at 75.8 µM],
COc1ccc(-n2c(=O)c(C)nc3cnc(N4CCNCC4)nc32)cc1,inactive: 22.7%,
COc1cc(-c2cc(=O)c3ccccc3o2)ccc1O,inactive: 5.27%,
NC[C@H]1O[C@H](O[C@H]2[C@H](O)[C@@H](O[C@H]3O[C@H](CO)[C@@H](O)[C@H](N)[C@H]3O)[C@H](N)C[C@@H]2N)[C@H](N)C[C@@H]1O,inactive: 19.8% [at 75.8 µM],
CC(=O)N1CCC2(CCCN(c3ncccn3)C2)CC1,inactive: 3.82%,
C=CCOc1ccccc1OCC(O)CNC(C)C (configuration not stated),inactive: 15.2% [at 75.8 µM],
O=C(O)C1(O)C[C@H](O)C(O)[C@@H](O)C1 (some centres not stated),inactive: 6.42%,
CN(C)c1ncc2nc(CCc3ccccc3)c(=O)n(-c3ccccc3)c2n1,inactive: 23.4%,
Cc1c(N)c(=O)n(-c2ccccc2)n1C,inactive,
COc1cccc(CNC(=O)c2c(OC)cc(=O)n3c2CCN(C(=O)c2csc(C)n2)CC3)c1,inactive: 4.82%,
C(=C\c1ccnc2ccccc12)/c1ccnc2ccccc12,inactive: 16.2%,
COc1ccc2c3c1O[C@H]1C[C@H](O)C=C[C@@]31CCN(C)C2,inactive: -4.36%,
O=C(O)c1ccc[n+]([O-])c1,inactive: 4.87%,
COC(=O)N1CCC[C@@]2(CCN(c3ccccn3)C2)C1,inactive: 9.17%,
CCCCNC(=O)NS(=O)(=O)c1ccc(N)cc1,inactive: 16.5%,
CCOC(=O)/C=C(C)/C=C/C=C(C)/C=C/c1c(C)cc(OC)c(C)c1C,inactive: -2.3%,
C#CCN(Cc1ccccc1)S(=O)(=O)C=C,inactive: 1.14%,
CCNc1ncc2nc(-c3cccs3)c(=O)n(-c3ccc(OC)cc3)c2n1,inactive: 38.2%,
FC(F)(F)c1ccccc1-c1nc(-n2ccnc2)c2ccccc2n1,inactive: -12.9%,
C[C@@H]1[C@H](c2ccccc2)OCCS(=O)(=O)N1Cc1ccccc1,inactive: 6.32%,
COC(=O)N1CCC2(CCN(Cc3ccc(C#N)cc3)CC2)CC1,inactive: 8.08%,
COc1c(Cl)ccc(Cl)c1C(=O)O,inactive: -16.8%,
CC1CN(c2cc3c(cc2F)c(=O)c(C(=O)O)cn3-c2ccc(F)cc2F)CCN1 (configuration not stated),inactive: 32.7%,
Cc1ccccc1Cc1nc2cccnc2n1C1CCN(C(=O)CC2NC(=O)c3ccccc32)CC1 (configuration not stated),inactive: 15.7%,
CC1(C)S[C@@H]2C(C(=O)OCc3ccccc3)NC(=O)N2C1C(=O)OCc1ccccc1 (some centres not stated),inactive: -3.32%,

SMILES,"activity change, negative = inhibition",Potency
O=c1cnc2cncnc2n1Cc1ccc(F)cc1,inactive: 16.3%,
C/C=C(\C)C(=O)OC1[C@@H]2C=C3C4CC(=O)OC(c5ccoc5)[C@]4(C)CCC3[C@@](C)(C2=O)C(C(O)C(=O)OC)C1(C)C (some centres not stated),inactive: -1.7%,
CN(C(=O)CN(CCO)CC(=O)N(C)C(C)(C)Cc1ccccc1)C(C)(C)Cc1ccccc1,inactive,
COC(=O)N/N=C/c1c[n+]([O-])c2ccccc2[n+]1[O-],inactive: -7.84%,
COc1ccc2c(c1)CCc1cnc(-n3ncc(C(=O)NCc4cc(C)no4)c3C3CC3)nc1-2,inactive: 1.22%,
O=S(O)CO,inactive: 11.2%,
CO[C@H]1C=CO[C@@]2(C)Oc3c(C)c(O)c4c(O)c(c(C=NN5CCN(C)CC5)c(O)c4c3C2=O)NC(=O)C(C)=CC=C[C@H](C)[C@H](O)[C@@H](C)[C@@H](O)[C@@H](C)[C@H](OC(C)=O)[C@H]1C,inactive: 11% [at 39.6 µM],
CC(C)C(=O)NCC1CCC2(CCN(Cc3ccc(-c4ccccc4Cl)o3)CC2)O1 (configuration not stated),inactive: -1.04%,
COC(=O)CC1C(C)(C)C(=O)C2CC3=C4CC(=O)OC(c5ccoc5)[C@]4(C)CCC3[C@@]1(C)C2=O (some centres not stated),inactive: -10.4%,
COc1cc(NS(=O)(=O)c2ccc(N)cc2)ncn1,inactive,
O=C(c1cc(C(F)(F)F)cc(C(F)(F)F)c1)N1CCC[C@@]2(CCN(c3ncccn3)C2)C1,inactive: 11%,
COc1ccccc1CCn1c(=O)c(-c2cc(F)cc(F)c2)nc2cncnc21,inactive: 15.7%,
N#CCCn1c(=O)c(-c2cccs2)nc2cnc(Nc3ccccc3)nc21,inactive: 48.5%,
Cc1cc(C)nc(NS(=O)(=O)c2ccc(N)cc2)n1,inactive,
CS(=O)(=O)Nc1cccc(-c2ccc3ncnc(NC4CCNCC4)c3c2)c1,inactive: 27.3%,
CN1CCC(=O)N([C@H](COc2ccccc2)Cc2ccccc2)CC1,inactive: 7.61%,
C=C1CC[C@H](O)CC1=C/C=C1\CCC[C@]2(C)[C@@H]([C@H](C)CC[C@@H](O)C(C)(C)O)CC[C@@H]12,inactive: -9.82%,
COCCn1c(=O)c(-c2ccc(Cl)cc2)nc2cnc(OC)nc21,inactive: 4.87%,
FC(F)(F)c1ccccc1-c1cc(NCc2cccnc2)ncn1,inactive: 8.23%,
Cn1cc(C(F)(F)F)nc1-c1ccc(OCC(O)CNCCOc2ccc(O)c(C(N)=O)c2)cc1 (configuration not stated),inactive,
CN1CCN2c3ncccc3Cc3ccccc3C2C1 (configuration not stated),inactive,
COc1ccccc1CN1CCC2(CC1)CCN(C(=O)c1ccncc1)CC2,inactive: 15.9%,
C[C@@H]1C/C=C/C=C/C=C/C=C/[C@H](O[C@@H]2O[C@H](C)[C@@H](O)[C@H](N)[C@@H]2O)C[C@@H]2O[C@](O)(C[C@@H](O)C[C@H]3O[C@@H]3/C=C/C(=O)O1)C[C@H](O)[C@H]2C(=O)O,inactive: 1.38%,
COc1ccc(SC[C@H](C)CN2CC[C@H](NC(=O)OCc3ccccc3)CCC2=O)cc1,inactive: -19.9%,
CN1CCN(c2nc(-c3ccc4c(c3)OCO4)nc3ccccc23)CC1,inactive: -10.3%,

SMILES,"activity change, negative = inhibition",Potency
CN1CCN(c2ncc3nc(-c4ccccc4)c(=O)n(CCC#N)c3n2)CC1,inactive: 5.83%,
CC(C(O)c1ccc(O)cc1)N1CCC(Cc2ccccc2)CC1 (configuration not stated),inactive,
CN(Cc1ccccc1)Cc1ccccc1,inactive: 12.1%,
CCCCCCCCCCCCCCCC(=O)N[C@@H](COP(=O)(O)O)C(=O)O,inactive: 15.3% [at 15.3 µM],
O=c1ccn([C@@H]2O[C@H](COP(=O)(O)OP(=O)(O)O)[C@@H](O)[C@H]2O)c(=O)[nH]1,inactive,
O=c1cc(-c2ccccc2)oc2ccccc12,inactive: 15% [at 320 µM],
COCc1c(C(=O)N2CCCCC2c2cccnc2)cnn1-c1ncc2c(n1)-c1ccccc1CCC2 (configuration not stated),inactive: 21.1%,
Cc1ccc(OCC(O)C(C)NC(C)C)c2c1CCC2 (configuration not stated),inactive: -15%,
CN(C)c1ncc2nc(-c3cccc(C#N)c3)c(=O)n(C)c2n1,inactive: 17.4%,
CCCn1c(=O)c(C)cn2nc(N)nc12,inactive,
c1ccc2cc(C3=NCCN3)ncc2c1,inactive: 23.3%,
COCCn1c(=O)cnc2cnc(N3CCNCC3)nc21,inactive: 9.77%,
O=C(c1csnn1)N1CCC[C@@]2(CCN(Cc3cc(C(F)(F)F)cc(C(F)(F)F)c3)C2)C1,inactive: 1.84%,
O=C(O)C1=CC(=C(c2ccc(O)c(C(=O)O)c2)c2ccc(O)c(C(=O)O)c2)C=CC1=O,,active: 56.2 µM and active: 1.58 µM
COc1cc(SC)ccc1C(=O)N1CCC(Cc2ccccc2)CC1,inactive: -23.2% [at 75.8 µM],
CC(=O)Nc1ccccc1-c1nc(CNC(=O)c2ccc(Cl)cc2)c(C)o1,inactive: 6.58%,
Cn1cccc1C(=O)N1CCC2(CC1)CN(Cc1ccc(C#N)cc1)C2,inactive: 11.7%,
N#CCCn1c(=O)cnc2cnc(Oc3cccc(Cl)c3)nc21,inactive: 1.48%,
Cn1c(CCNC(=O)C2CC23CCN(C(=O)C2=CCCC2)CC3)nc2ccccc21 (configuration not stated),inactive: 20.1%,
CC#C[C@]1(O)CC[C@H]2[C@@H]3CCC4=CC(=O)CCC4=C3[C@@H](c3ccc(N(C)C)cc3)C[C@@]21C,inactive,
Cc1csc(CN(C)C(=O)c2sc3ncnc(NCC4CCCO4)c3c2C)n1 (configuration not stated),inactive: 7.98%,
COc1ccc(C(=O)N2CCC3(CC2)CCN(c2ccccn2)CC3)cc1,inactive: -2.75%,
C[C@H]1NCc2cc(-c3ccc4c(=O)c(C(=O)O)cn(C5CC5)c4c3OC(F)F)ccc21,inactive: 19.3%,
C[N+]1(CC2COC(c3ccccc3)(c3ccccc3)O2)CCCCC1 (configuration not stated),inactive: 24.7%,
O=C(C[N+]1(c2ccccc2)CCOCC1)c1ccccc1,inactive: 13.6%,

SMILES,"activity change, negative = inhibition",Potency
Cc1ccc2c(c1)CC[C@H]1CC(=O)CC[C@@]21C,inactive: 4.99%,
CC(c1ccc(N(C)C)cc1)c1ccnc2ccccc12 (configuration not stated),inactive: -1.54%,
Cc1cc(C(=O)Nc2cccc(-c3nc(CNC(=O)c4sc(C)nc4C)c(C)o3)c2)c(C)o1,inactive: 18.1%,
Cc1c(C(=O)N2CCOc3ccc(Cl)cc3C2)sc2ncnc(NCCc3ccccn3)c12,inactive: 11.2%,
CC[C@@H]1[C@H]2CCCC(=O)N3CC[C@@H](C[C@@H]1OC(=O)NCc1ccccc1)[C@@H]23,inactive: -11%,
COc1ccc(Cl)cc1C(=O)NCCc1ccc(S(=O)(=O)NC(=O)NC2CCCCC2)cc1,inactive,
Nc1nc(=O)n([C@@H]2CS[C@H](CO)O2)cc1F,inactive: 6.72%,
O=C(c1cccc(F)c1)N1CCC2(CC1)CCN(c1ccccc1)CC2,inactive: 8.57%,
NC(N)=NCCCC(NC(=O)C(N)Cc1ccc(O)cc1)C(=O)O (configuration not stated),inactive: 19.2%,
COc1cc(CNC(=O)c2cnn(-c3ncc4c(n3)-c3ccccc3CC4)c2C)cc(OC)c1OC,inactive: 13.4%,
COc1ccc(-c2nc3cnc(N4CCN(C)CC4)nc3n(C)c2=O)cc1,inactive: 8.08%,
CCNc1ncc2nc(CCc3ccccc3)c(=O)n(-c3ccc(OC)cc3)c2n1,inactive: -6.35%,
C=C(CO)C1Cc2c(ccc3c(=O)c4c(oc23)COc2cc(OC)c(OC)cc2-4)O1 (configuration not stated),inactive: 13.6%,
CCN(CC)CCNC(=O)COc1ccc(Cl)cc1,inactive: -14.3%,
O=C(c1cnccn1)N1CCC[C@@]2(CCN(c3ccncc3)C2)C1,inactive: -0.95%,
COC(=O)C1CCN(Cc2ccc3c(c2)CN(C(=O)c2cc(C4CC4)on2)CCO3)CC1,inactive: 3.82%,
CC(C)C(O)c1ccc2c(c1)CN(C(=O)c1ccccc1-n1cccn1)CCO2 (configuration not stated),inactive: 6.93%,
CCCCCCNC(=O)n1cc(F)c(=O)[nH]c1=O,inactive: 16%,
O=C(O)C1CC(C2CCCCN2)CN2CCCCC12 (configuration not stated),inactive: 17.3%,
CCC[C@@H]1C[C@@H](C(=O)N[C@@H]([C@H]2O[C@H](SC)[C@H](OP(=O)(O)O)[C@@H](O)[C@H]2O)[C@H](C)Cl)N(C)C1,inactive,
CCc1cc(C(=O)NCC2Cc3cc(C)cc(-c4cc(C(C)=O)ccc4F)c3O2)n(C)n1 (configuration not stated),inactive: -1.57%,
O=c1ccn(C2OC(COP(=O)(O)OP(=O)(O)OP(=O)(O)O)C(O)C2O)c(=O)[nH]1 (configuration not stated),inactive: -8.4%,
